# Article PMC6919601, “Identification of Plasmodium dipeptidyl aminopeptidase allosteric inhibitors by high throughput screening” (PLoS ONE, 2019)
# Hit rate of the full screen: of about 110,000 compounds, about 230 (0.21%) showed an effect of 50% or more. The list shows a part of the results.
# Biological target: DPAP1 (Plasmodium falciparum, UniProt Q8IIJ9)
# Experiment: primary screen, percent inhibition; read by cleavage of a fluorogenic dipeptide substrate; higher = more effect of the substance
# Design: species or system P. falciparum D10 trophozoite lysates; single well
# 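Note: 30 min substrate incubation versus DMSO and 10 µM JCP410 controls.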
# Chain of DPAP1 (Q8IIJ9 whole entry, looked up): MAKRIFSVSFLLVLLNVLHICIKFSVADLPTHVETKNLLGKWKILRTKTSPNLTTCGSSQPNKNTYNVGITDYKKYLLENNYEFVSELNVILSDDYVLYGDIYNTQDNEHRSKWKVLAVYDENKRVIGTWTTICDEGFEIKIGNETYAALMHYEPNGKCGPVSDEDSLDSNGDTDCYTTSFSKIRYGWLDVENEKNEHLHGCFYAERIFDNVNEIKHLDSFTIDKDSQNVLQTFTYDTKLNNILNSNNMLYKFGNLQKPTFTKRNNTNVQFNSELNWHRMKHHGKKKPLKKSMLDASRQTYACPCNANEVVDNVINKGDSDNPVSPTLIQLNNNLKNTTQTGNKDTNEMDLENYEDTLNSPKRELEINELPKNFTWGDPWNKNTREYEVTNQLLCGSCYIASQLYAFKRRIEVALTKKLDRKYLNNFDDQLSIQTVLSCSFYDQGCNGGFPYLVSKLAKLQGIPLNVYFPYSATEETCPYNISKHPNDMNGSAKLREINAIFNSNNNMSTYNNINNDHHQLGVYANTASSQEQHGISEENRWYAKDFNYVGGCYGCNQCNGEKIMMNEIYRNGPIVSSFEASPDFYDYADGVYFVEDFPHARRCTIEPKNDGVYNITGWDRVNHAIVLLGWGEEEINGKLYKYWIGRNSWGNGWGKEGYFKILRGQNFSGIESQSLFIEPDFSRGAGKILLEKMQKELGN
row,SMILES,% Inhibition @ 10 uM [%]
1,COc1ccc(C2NC(=O)c3[nH]nc(C)c32)cc1OC (centres unmarked),-3.35
2,CCOCCCn1c(=N)c(C(=O)NC2CCCCC2)cc2c(=O)n3cc(C)ccc3nc21,1.97
3,COc1ccc(C2=N/C(=C\c3sccc3C)C(=O)O2)c(Cl)c1,7.76
4,CCOC(=O)C1CCN(C2CCC(c3ccccc3)CC2)CC1 (centres unmarked),5.03
5,O=C1CC(c2ccc(Cl)c(Cl)c2)CC(=O)C1=CNCCN1CCNCC1 (centres unmarked),5.3
6,Cc1cccc(OCC(=O)N2CCN(c3nnc(-c4ccccc4)c4ccccc34)CC2)c1,-4.62
7,CCOC(=O)N1CCN(Cc2ccc(Cl)c(Cl)c2)CC1,-1.78
8,CC1=C(C(=O)Nc2ccccc2C)C(c2ccccc2O)NC(S)=N1 (centres unmarked),1.13
9,CC1=C(C(=O)Nc2cccnc2)C(c2cccc(Br)c2)n2nc(-c3cccs3)nc2N1 (centres unmarked),2.53
10,Cc1ccc(OCCCn2c(C(C)O)nc3ccccc32)cc1 (centres unmarked),-2.74
11,Cc1ccc(NC(=O)C(C)Sc2nc3nc(C)cc(C)n3n2)cc1 (centres unmarked),-7.58
12,O=C(NCCCO)c1ccccc1C(=O)c1ccccc1,6.08
13,Nc1cc(S(=O)(=O)c2ccc(Cl)cc2)ccc1Cl,-1.69
14,O=C(CCn1c(=O)c2cccn2c2cccnc21)NCCCN1CCCC1=O,-1.28
15,COc1cccc(C(C)NC(=O)c2c(F)cccc2Cl)c1 (centres unmarked),0.843
16,O=C(NCc1ccco1)C1CCN(S(=O)(=O)c2ccc3nc(O)oc3c2)CC1,-4.08
17,COc1ccc(S(=O)(=O)N2CCC(C(=O)Nc3ccc(Br)cc3F)CC2)cc1,-7.3
18,COc1cccc(NC(=O)C(C)Oc2ccc(Cl)cc2Cl)c1 (centres unmarked),-1.44
19,COc1ccc(C(=O)N[C@@H](CC(C)C)C(=O)NCC#N)cc1OC,-4.72
20,CC(N)C1COc2ccccc2O1 (centres unmarked),-0.902
21,COc1ccc(-c2nnc(SC3CCOC3=O)o2)cc1 (centres unmarked),6.49
22,O=C(NCCCCc1ccccc1)C12CC3CC(CC(C3)C1)C2,-1.48

row,SMILES,% Inhibition @ 10 uM [%]
1,CCc1ccc(OCCn2cccc2/C=C2/C(=N)N3OC(C)=CC3=NC2=O)cc1,0.317
2,CC1CC(C)CN(CCCNC(=O)C2CCCN(S(=O)(=O)N3CCOCC3)C2)C1 (centres unmarked),-1.09
3,COc1ccc(-c2[nH]nc3c2C2(C(=O)Nc4ccc(F)cc42)C(C#N)=C(N)O3)cc1 (centres unmarked),0.343
4,Cc1ccc(N2C(N)=C(C#N)C(c3ccsc3)C3=C2CCCC3=O)cc1 (centres unmarked),3.72
5,O=C(NCc1ccc2c(c1)OCO2)c1ccc(C(=O)NCc2ccc3c(c2)OCO3)nc1,-3.72
6,C=CCc1ccccc1OCC(O)CN1CCCC(C)C1 (centres unmarked),-7.08
7,Cc1ccc(OCC(=O)Nc2ccccn2)c(C)c1,-3.45
8,CCC(=O)/N=c1\sc2ccccc2n1-c1ccccc1,-10.9
9,O=C(Nc1ccc(Cl)cc1Cl)c1cc2nc(-c3ccccc3)cc(C(F)(F)F)n2n1,-1.5
10,COc1ccc(C(=O)c2sc3nc4c(cc3c2N)CCC4)cc1,-4.49
11,O=C(NCc1ccco1)c1ccc(CN2CCc3ccccc3C2)cc1,-1.81
12,COc1ccc(N2C(=O)C(Cl)=C(Nc3ccc(OC)cc3OC)C2=O)cc1,-5.07
13,CN(c1ccc(C(=O)NC2CC3CCC2C3)cc1)S(C)(=O)=O (centres unmarked),-1.51
14,O=S1(=O)Nc2cc3nc4ccccc4nc3c3cccc1c23,22.9
15,O=C(CC(C(=O)O)C1CCCO1)NCc1ccccc1 (centres unmarked),25.8
16,CC1=C(C(=O)OCC2CCCO2)C(c2cccc(Cl)c2)NC(=O)N1 (centres unmarked),-0.582
17,O=C(c1ccccc1Cl)n1nc(-c2cccnc2)nc1NCc1ccccc1,-2.92
18,Cc1cc(/C=C2/SC(=O)N(C(C)C)C2=O)c(C)n1-c1ccncc1,-0.68
19,CCCSc1nc(C)cc(COC)c1C#N,1.33
20,Cc1ccc(-c2nc3cc(NC(=O)c4nc[nH]n4)ccc3o2)c(Cl)c1,-1.36
21,CCOc1ccc(OCC)c(C=C(C#N)C#N)c1,4.22
22,O=C(Cn1ncc2ccc(Cl)cc21)N1CCCCC1,-2.88

row,SMILES,% Inhibition @ 10 uM [%]
1,COC(=O)c1cc(S(=O)(=O)N2CCN(CCOc3ccc(Cl)cc3)CC2)c[nH]1,6.61
2,CCC1(Cc2ccccc2)C(=O)NC(=O)NC1=O,-3.16
3,CC(C)(C)c1ccc(OCC(=O)NCCN2CCCC2)cc1,-3.65
4,CN1CCCN(CC2CC3C=CC2C3)CC1 (centres unmarked),-1.78
5,CC(C)(C)OC(=O)NCc1cccc(C(=O)N[C@@H](CSCc2ccccc2)C(=O)NCC#N)c1,5.75
6,O=C1C2CC=CCC2C(=O)N1CNc1ccccc1 (centres unmarked),-7.02
7,CNC(=O)C1=NCCCc2cc(OC)c(OC)cc21,5.55
8,N#Cc1nc(-c2ccc(F)cc2)oc1NCCN1CCOCC1,2
9,N#Cc1c(NC(=O)c2cc3ncc(Br)cn3n2)sc2c1CCCC2,-3.49
10,COc1ccc(-c2cn3c4ccccc4nc3n2CCN2CCCCC2)cc1,2.94
11,Cc1ccc(OCC(=O)N2CCN(C(=O)COc3ccc(Br)cc3)CC2)cc1,-1.52
12,Cc1ccc(/C=c2\sc3nc(-c4ccc(C(C)(C)C)cc4)nn3c2=O)o1,1.91
13,Cn1c(=O)n(C)c2cc(S(=O)(=O)NC3CCCC3)ccc21,5.03
14,CCc1cc2c(cc3c(=O)n(CC(=O)N4CCN(c5ccccn5)CC4)ncn32)s1,-1.7
15,Cc1ccc(OCCCCN2CCNCC2)c(C(C)(C)C)c1,-4.5
16,CCOc1ccc(Cn2c(S)nc3c2c(=O)n(C)c(=O)n3C)cc1OCC,8.89
17,COc1cc(OC)c(C(C2=C(O)CC(C)(C)CC2=O)C2C(=O)CC(C)(C)CC2=O)cc1Br (centres unmarked),-3.55
18,CCOc1ccc(-c2nc(-c3ccc(-c4ccccc4)nc3OC)no2)cc1,-1.33
19,Cc1nn(Cc2ccccc2)c(C)c1NC(=O)CCC(=O)O,-1.92
20,Cc1nn(C)cc1C1C(C#N)=C(N)N(c2cccnc2)C2=C1C(=O)CCC2 (centres unmarked),-0.864
21,Cc1ccc(NC(=O)c2c(-c3ccccc3Cl)noc2C)cc1,1.34
